# Reference: PubChem BioAssay AID485364 (National Center for Advancing Translational Sciences (NCATS), 2010)
# Screen size: about 360,000 compounds; about 11,000 (3.1%) were called active. Inconclusive means that the source gave no clear call. Such entries were picked first, then a sample of the others. The call rests on the fitted dose curve; in most records, active means well fitted inhibition curve with a large enough effect; inconclusive means small, poorly fitted or top-dose-only effect; inactive means no such curve, though single readings can be large or run the other way. Potencies of inconclusive entries are left out as doubtful fits.
# Target: Schistosoma mansoni thioredoxin glutathione reductase (TGR) (UniProt Q962Y6)
# Assay: qHTS Assay for the Inhibitors of Schistosoma Mansoni Peroxiredoxins; further: nearly all actives have a fitted effect of over 60% in size
# Conditions: purified TGR, DTNB reduction, TNB absorbance 405 nm; series mostly up to 114 µM
# In short: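 Kinetic colorimetric format: TGR-catalysed, NADPH-driven DTNB reduction monitored via TNB absorbance. Enzyme dispensed at 20 nM; compound exposure 15 min at room temperature before reaction start.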
# Potency means the concentration at half of the fitted maximal effect; tags describe the fitted curve by direction and shape.
row,Compound,Potency
1,Cc1ccc(-c2nnc3c4ccccc4c(C)nn23)cc1S(=O)(=O)N1CCN(CCO)CC1,inactive
2,Cc1cccc(NC(=O)CN2C(=O)CSc3ccc(S(=O)(=O)N4CCCC4)cc32)c1C,inactive
3,O=C1CC(NCCN2CCOCC2)C(=O)N1Cc1ccc(N2CCCC2=O)cc1 (stereo unspecified),"inconclusive [inhibitor, full curve]"
4,ClC1=CCC2CN(CCN3CCCCC3)CC2C1 (stereo unspecified),"inconclusive [inhibitor, single point]"
5,CCCn1nc(C(=O)Nc2nc3ccccc3[nH]2)c2ccccc2c1=O,inactive
6,Cc1ccc(S/C=C\C(=O)c2ccccc2)cc1,"inconclusive [inhibitor, partial curve]"
7,Cc1c(NS(=O)(=O)c2cc(C(=O)NCc3ccco3)cc(Cl)c2Cl)c(=O)n(-c2ccccc2)n1C,"inconclusive [inhibitor, single point]"
8,COc1cc(OC)cc(-c2nnc(NC(=O)CCS(=O)(=O)c3ccc(F)cc3)o2)c1,"inconclusive [inhibitor, partial curve]"
9,Nc1nnc(SCc2c(F)cccc2Cl)s1,inactive
10,O=C(Nc1nnc(-c2ccncc2)o1)c1ccc(Br)s1,"inconclusive [inhibitor, partial curve, poor fit]"
11,CN(c1ccc(OCC(=O)N2CCN(C/C=C/c3ccccc3)CC2)cc1)S(=O)(=O)c1cccs1,"inconclusive [inhibitor, partial curve]"
12,COc1ccc(CN2CCNC(=O)C2CC(=O)NCC2CCOCC2)cc1C (stereo unspecified),"inconclusive [inhibitor, partial curve]"
13,O=C(CN1C(=O)/C(=C2\SC(=S)N(CCS(=O)(=O)O)C2=O)c2ccccc21)Nc1cccc(Br)c1,"inconclusive [inhibitor, partial curve]"
14,Cc1ccc(Cn2c(C)c3cnn(CC(=O)NC4CCCC4)c(=O)c3c2C)cc1,"inconclusive [inhibitor, partial curve]"
15,O=C(CCS(=O)(=O)c1ccccc1)Nc1nc(-c2cccs2)cs1,"inconclusive [inhibitor, partial curve]"
16,Cc1cnc(C)c(N2CCN(Cc3cn(C)nc3-c3cccc(Cl)c3)CC2)n1,"inconclusive [inhibitor, full curve]"
17,CCC(SC1=N/C(=C/c2ccccc2)C(=O)N1c1ccccc1)C(=O)Nc1cc(C)on1 (stereo unspecified),inactive
18,Cc1ccc(N=C(N)N=C(N)N)cc1,inactive
19,COc1ccc(-n2c(Cc3cccn3C)nnc2SCC(=O)Nc2ccc(C(C)=O)cc2)cc1,"inconclusive [inhibitor, partial curve]"
20,N#CCCn1cc(/C=N/NC(=O)c2ccncc2)c(-c2ccc(F)cc2)n1,"inconclusive [inhibitor, single point]"
21,COC(=O)c1cc(-c2ccc(Cl)cc2Cl)n[nH]1,inactive
22,COc1cccc(C(=O)NC(=S)Nc2nnn(C)n2)c1,"inconclusive [inhibitor, partial curve]"
23,COc1ccc(-c2oc3cccnc3c2/C=C/c2ccc(OC)c(OC)c2)cc1,"inconclusive [inhibitor, partial curve, poor fit]"

row,Compound,Potency
1,N#CC(C#N)=C(C#N)c1ccc(Nc2ccccc2)cc1,active: 2.82 µM
2,COc1ccc(OC)c(C2C(C(=O)O)c3ccccc3C(=O)N2C)c1 (stereo unspecified),"inconclusive [inhibitor, partial curve, poor fit]"
3,c1csc(-c2csc3ncnc(NCCCN4CCOCC4)c23)c1,"inconclusive [inhibitor, partial curve]"
4,Cc1ccc(Cn2nnc3c(=O)[nH]c(C4CCN(C(=O)Cc5cccs5)CC4)nc32)cc1,inactive
5,CCOC(=O)Cc1csc(NC(=O)NC2(C(F)(F)F)Oc3ccccc3O2)n1,active: 14.1 µM
6,Cc1ccc2cc(/C=N/NC(=O)[C@H](C)NC(=O)OC(C)(C)C)c(Cl)nc2c1,inactive
7,Clc1cc2c(c(CSc3nc4ccccc4n4cccc34)c1)OCOC2,"inconclusive [inhibitor, full curve]"
8,Cc1cc(C(=O)NCc2ccccc2Cl)c2c(C)nn(-c3cccc(F)c3)c2n1,inactive
9,O=C(NCC(c1ccco1)S(=O)(=O)c1cccs1)c1ccc(Cl)cc1 (stereo unspecified),active: 14.1 µM
10,Cc1cccc(CSc2ccc(-c3ccco3)nn2)c1,"inconclusive [inhibitor, partial curve]"
11,C=C(C)C1CCC(C)=C1COC(=O)Nc1ccccc1 (stereo unspecified),"inconclusive [inhibitor, single point]"
12,Cc1ccc2cc(CCNS(=O)(=O)c3ccc(Cl)cc3)c(=O)[nH]c2c1C,inactive
13,O=C(Cn1cnc2ccccc2c1=O)NCCC(=O)N1CCN(Cc2ccccc2)CC1,"inconclusive [inhibitor, partial curve]"
14,Cc1ccccc1-c1nn(-c2ccc(F)cc2F)cc1CNCC(C)O (stereo unspecified),"inconclusive [inhibitor, partial curve]"
15,C=CCNCCOCCOc1ccc(Cl)cc1C(C)(C)C,inactive
16,O=C(Nc1ccc(N2CCCC2)cc1)C(Cl)c1ccccc1 (stereo unspecified),"inconclusive [inhibitor, partial curve]"
17,CC(C)[C@H](NC(=O)c1ccccc1)C(=O)Nc1cccc(S(=O)(=O)N2CCOCC2)c1,inactive
18,COc1ccc(NC(C)c2ccccc2)cc1 (stereo unspecified),"inconclusive [inhibitor, partial curve]"
19,COc1ccccc1-c1sc2cc3c(cc2c1C#Cc1ccccn1)OCO3,"inconclusive [inhibitor, single point]"
20,CCOc1ccccc1-c1ccc(C(=O)NCc2ccccc2)o1,"inconclusive [inhibitor, partial curve]"
21,O=C(NCC1OCCc2ccccc21)c1cc(COc2c(F)cccc2F)on1 (stereo unspecified),inactive
22,S=c1[nH]nc(-c2ccco2)n1C1CCCCC1,inactive
23,COc1ccc(C(=O)C(OC(=O)CNC(=O)c2ccco2)c2ccccc2)cc1 (stereo unspecified),active: 17.8 µM
